Results as given in article PMC4336329 (PLoS ONE, 2015).
In all, about 310,000 compounds went through this assay and about 2,200 (0.71%) showed an effect of 50% or more. The effect is printed as a negative number. The list shows a part of the results.

target: human ether-à-go-go-related gene (hERG) potassium channel (human, UniProt Q12809); experiment: primary screen, population patch clamp on CHO cells stably expressing hERG
Sequence (Q12809 whole entry, looked up): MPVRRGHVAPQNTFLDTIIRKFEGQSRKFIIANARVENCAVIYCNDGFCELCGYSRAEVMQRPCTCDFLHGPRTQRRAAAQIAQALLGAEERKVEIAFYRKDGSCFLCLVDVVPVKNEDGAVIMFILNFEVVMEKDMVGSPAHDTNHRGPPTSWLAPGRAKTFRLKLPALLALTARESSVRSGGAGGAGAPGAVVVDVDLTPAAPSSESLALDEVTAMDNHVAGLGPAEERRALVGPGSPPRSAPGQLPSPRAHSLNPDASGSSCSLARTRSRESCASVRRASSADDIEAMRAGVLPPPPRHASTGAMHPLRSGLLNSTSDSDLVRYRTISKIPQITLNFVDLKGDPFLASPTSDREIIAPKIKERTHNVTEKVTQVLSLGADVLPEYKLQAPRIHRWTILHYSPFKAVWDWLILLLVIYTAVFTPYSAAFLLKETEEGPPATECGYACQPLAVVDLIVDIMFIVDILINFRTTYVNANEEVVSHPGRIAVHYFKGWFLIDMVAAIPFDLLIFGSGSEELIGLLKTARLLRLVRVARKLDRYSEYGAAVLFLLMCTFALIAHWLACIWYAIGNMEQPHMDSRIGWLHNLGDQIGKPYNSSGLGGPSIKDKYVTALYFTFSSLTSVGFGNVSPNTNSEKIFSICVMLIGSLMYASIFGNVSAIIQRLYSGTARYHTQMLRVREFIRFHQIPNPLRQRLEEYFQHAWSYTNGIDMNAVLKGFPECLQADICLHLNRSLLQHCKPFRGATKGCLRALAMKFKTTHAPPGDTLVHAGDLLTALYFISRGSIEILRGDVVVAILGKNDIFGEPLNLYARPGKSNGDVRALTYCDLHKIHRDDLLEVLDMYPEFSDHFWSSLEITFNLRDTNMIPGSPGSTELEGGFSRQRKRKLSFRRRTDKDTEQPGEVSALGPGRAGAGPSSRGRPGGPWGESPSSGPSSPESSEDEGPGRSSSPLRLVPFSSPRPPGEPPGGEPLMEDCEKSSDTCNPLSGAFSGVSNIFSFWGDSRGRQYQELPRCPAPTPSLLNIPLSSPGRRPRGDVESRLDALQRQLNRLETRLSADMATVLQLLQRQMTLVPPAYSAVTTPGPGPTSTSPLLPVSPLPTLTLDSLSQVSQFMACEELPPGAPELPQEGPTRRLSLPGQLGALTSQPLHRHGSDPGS

Row | Structure (SMILES) | hERG current change (%, negative = inhibition) at 1uM [%]
1 | Clc1ccc(-n2cccc2)cn1 | 14.8
2 | CCO[C@H]1OC(C(=O)N2CCN(Cc3ccc4c(c3)OCO4)CC2)=C[C@@H](c2ccc(C(F)(F)F)cc2)[C@@H]1CCCO | -2.19
3 | CCOc1ccc(/C(O)=C2/C(=O)C(=O)N(CCOCCO)C2c2ccccn2)cc1 (stereo not drawn) | -1.13
4 | Cc1nn2c(-c3ccc(Cl)cc3)nnc2s1 | -4.67
5 | C=CCn1c(=O)c2c(nc(-n3nc(C)cc3C)n2C)n(C)c1=O | 30.1
6 | O=C1CC(c2ccccc2)CC(O)=C1C=NCc1ccco1 (stereo not drawn) | -1.79
7 | Cc1nc(NC(=O)CSc2nc3cccnc3n2C2CCCCC2)sc1C | 9.77
8 | Cc1ccc(S(=O)(=O)N(C)C)cc1NC(=O)CCc1ccccc1 | -1.49
9 | Cc1cc(C)cc(NC(=S)N2CCN(c3ccccn3)CC2)c1 | 6.92
10 | COc1ccc(CNC(=O)C2CCCN2S(=O)(=O)c2ccc(C)cc2)cc1 (stereo not drawn) | 0.173
11 | O=C(COC(=O)c1ccc2ccccc2c1O)NCc1ccccc1 | 10.9
12 | Cc1ccc2nc(NC(=O)CCCC(=O)O)sc2c1 | 13.2
13 | COc1ccc2[nH]c3c(c2c1)CCN1C(=O)N([C@@H](C)C(=O)NCCc2ccc(OC)c(OC)c2)C(=O)[C@]31C | -3.9
14 | Cl.Oc1cccc(C(O)CNCc2ccc(-c3ccccc3)cc2)c1 (stereo not drawn) | -11.4
15 | O=C1c2ccccc2C2(c3ccc(F)cc3)NCCN12 (stereo not drawn) | 8.5
16 | CN(c1ccc(C(=O)NCc2cccnc2)cc1)S(C)(=O)=O | 3.33
17 | Cc1ccnc(NC(=O)COC(=O)c2ccc(F)cc2F)n1 | 17.2
18 | Cc1cccnc1NC(=O)CSc1ncnc2sc(C)c(C)c12 | 13.8
19 | Cc1ccc(S(=O)(=O)n2nc(-n3c(C)ccc3C)c3c(F)cccc32)c2ccccc12 | 12.6
20 | COc1cc(/C=C/C(=O)OCC(=O)NCCN2C(=O)CSC2=O)ccc1OC(F)F | 3.09
21 | Cc1ccc(OCC(=O)NNC(=O)CSc2nnc(-c3ccc(C)cc3)n2C)cc1 | 7.24
22 | Cc1ccc(NCc2nnc(SCC(=O)Nc3cccc(O)c3)n2CC2CCCO2)c(C)c1 (stereo not drawn) | -36.5
23 | COc1ccc(OC)c(S(=O)(=O)NC2CC(=O)N(c3ccc(C)c(C)c3)C2)c1 (stereo not drawn) | 1.52
24 | CCCCn1c(N)c(N(CC(C)C)C(=O)C2CCC2)c(=O)[nH]c1=O | 4.79
25 | CCCCn1c(C)nc2c(=O)n(C)c(=O)[nH]c21 | 8.72
26 | COc1ccc(NC(=O)c2cncc(Br)c2)cc1S(N)(=O)=O | 1.84
27 | O=C(NCCCN1CCOCC1)c1ccccc1NS(=O)(=O)c1ccc(Br)cc1 | -7.95

Row | Structure (SMILES) | hERG current change (%, negative = inhibition) at 1uM [%]
28 | Cc1nn(-c2ccccc2)c(C)c1NC(=O)COC(=O)c1ccc(Cl)c(N)c1 | -2.92
29 | CN1CCN(Cc2nc3c(c(=O)n(C)c(=O)n3C)n2CCCc2ccccc2)CC1 | 5.38
30 | Cc1ccc(NC(=O)CN(c2ccc(C)cc2)S(=O)(=O)c2cccc3nonc23)cc1 | 1.85
31 | O=C1C2C(c3ccccc3)(C(=O)N1c1ccc(Cl)cc1)C2(c1ccccc1)c1ccccc1 (stereo not drawn) | 0.463
32 | COc1cc2c(cc1O)CCN(C(=O)c1ccco1)C2C (stereo not drawn) | 0.438
33 | COc1ccccc1N1CCN(S(C)(=O)=O)CC1 | 5.25
34 | Cc1cccc(C(=O)O/N=C(\N)Cc2cccc3ccccc23)c1 | 10
35 | CCCCn1c(=N)n(CC(O)c2ccccc2)c2ccccc21.Cl (stereo not drawn) | -36.7
36 | Cc1ccccc1NS(=O)(=O)c1cc(C(=O)NCc2ccncc2)ccc1Cl | -10.1
37 | CCc1cccc(NC(=O)Cn2c(=O)c3cccn3c3ccccc32)c1 | 11.5
38 | CCOC(=O)NC(=O)C(=CNc1cccc(C)c1)C(=O)NC(=O)OCC | 9.86
39 | Cc1ccc(CN2CCN(Cc3cnn(-c4ccc(Cl)cc4)c3)CC2CCO)o1 (stereo not drawn) | -12.6
40 | O=C(O)c1ccccc1NC(=O)C1C2C=CC(C2)C1C(=O)O (stereo not drawn) | 14.2
41 | Cc1ccccc1CNC(=O)C(=O)NCC1CCCN1S(=O)(=O)c1ccccc1 (stereo not drawn) | 2.85
42 | COc1ccc(C2=NCC(CSc3nnnn3C)S2)cc1 (stereo not drawn) | 5.15
43 | O=C(c1ccc2c(c1)OCO2)C1CCCN(Cc2ccc(OC(F)F)cc2)C1 (stereo not drawn) | -53
44 | COc1ccc(NC(=O)CCc2nnc3ccc(N4CCN(c5cccc(OC)c5)CC4)nn23)cc1 | 12.5
45 | CCOC(=O)C1=C(COC(=O)/C=C/c2cc(OC)c(OC)c(OC)c2)NC(=O)NC1C (stereo not drawn) | 15.6
46 | CCOC(=O)c1[nH]c2ccc(F)cc2c1NC(=O)CCN1CCSCC1 | 7.87
47 | COc1ccc(S(=O)(=O)N2CCCCCC2)cc1NC(=O)c1ccccc1S(C)(=O)=O | -3.5
48 | COc1ccc(C(=O)NN/C(=N/S(=O)(=O)c2ccc(C)cc2)c2ccccc2)cc1 | 1.4
49 | COc1ccc(OC)c(/C=N/NC(=O)CCN2CCN(C(c3ccccc3)c3ccccc3)CC2)c1 | 11.3
50 | O=S(=O)(/C=C/c1ccccc1)N1CCN(Cc2ccc3c(c2)OCO3)CC1 | -2.01
51 | CCOC(=O)c1c(NC(=O)CSc2nnnn2-c2ccccc2)sc2c1CC(C)(C)NC2(C)C | -7.13
52 | Cc1ccnc(NS(=O)(=O)c2ccc(NS(=O)(=O)c3ccc([N+](=O)[O-])cc3)cc2)n1 | 5.17
53 | O=C(COc1ccccc1F)NCC(c1ccco1)N1CCCC1 (stereo not drawn) | 23.5
54 | COc1ccc(C(=O)NCCn2cc(SCC(=O)Nc3nnc(C)s3)c3ccccc32)cc1 | 0.37
